{
  "source": "PubChem BioAssay (NCATS)",
  "key": {"[1]": {"assay": "qHTS Assay for Lipid Storage Modulators (AID 1519)", "details": "Drosophila S3 cells, BODIPY lipid droplet/cell ratio, laser cytometry, cells loaded with oleic acid", "summary_of_the_method": "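Cells seeded at 5,000 per well were treated with compounds over a concentration series and loaded with oleic acid (400 uM, as added). Lipid droplet fluorescence (488 nm excitation, 500-530 nm channel) was read by laser-scanning cytometry and normalized to 20 uM Triacsin C.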"}, "[2]": {"assay": "qHTS Assay for Modulators of Human Peripheral Myelin Protein 22 (PMP22) Expression/Activity (AID 1967)", "details": "Cell-based PMP22 reporter, dual-color luciferase ratio", "summary_of_the_method": "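Engineered MSC80 cells, Pmp22-promoter green and EF-alpha red luciferase reporters; 24h compound treatment at 37 °C. Concentration-response fits on green, red and ratio signals, each overlap-corrected, with %Activity normalized to untreated wells.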"}, "[3]": {"assay": "qHTS Validation Assay to Find Inhibitors of Chronic Active B-Cell Receptor Signaling (AID 485345)", "details": "ABC-DLBCL cells, chronic BCR signaling reporter", "summary_of_the_method": "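Read-out: ratio of filter-corrected green (IkappaBalpha fusion) to red (native) luciferase signal in doxycycline-induced TMD8 cells after 4 h at 37C. Titration spanned 46 uM–3 nM; Data were normalised to basal cells and 10 uM MG-132 wells.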"}, "[4]": {"assay": "S16 Schwann cell PMP22 intronic element beta-lactamase assay (AID 624044); for all read-outs here: nearly all actives have a fitted effect of over 15% in size", "details": "S16 rat Schwann cells, PMP22 element beta-lactamase FRET, 24 h", "summary_of_the_method": "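Beta-lactamase reporter under a PMP22 intronic regulatory element in stable S16 rat Schwann cells; 24 h compound exposure. 460 nm blue signal normalized between DMSO (0%) and potassium clavulanate, with 535 nm FRET tracking viability; curves classed by r2 and response.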"}, "[5]": {"assay": "A High-Content qHTS Against Drug Library for the Identification of Small Molecules that Inhibit DYT1 Early Onset Primary Dystonia-Associated Cell Pathology (AID 1645839)", "details": "HEK293 Flp-In EGFP-delE TorsinA, punctate imaging, 48 h; measured here: cell count cytotoxicity", "summary_of_the_method": "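High-content imaging quantified EGFP-TorsinA mislocalization in HEK293-derived cells inducibly expressing DYT1 mutant torsinA, after 48 h exposure to compound given together with tetracycline induction. Cell count served as a toxicity channel alongside %pathology.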"}, "[6]": {"assay": "qHTS drug screen for cell cycle checkpoint inhibitors in PARPi-resistant BRCA-mutant ovarian cancer cell lines. (AID 1963452)", "details": "PEO1/OlaR viability, CellTiter-Glo luminescence, 96 h; measured here: PEO1 parental viability", "summary_of_the_method": "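PEO1, PEO4 and PEO1/OlaR ovarian cancer cells, 600 per well, exposed 96 h at 37C to a dilution series. Viability read by CellTiter-Glo luminescence, normalized to DMSO and empty wells; activity summarized as Z-AUC.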"}, "[7]": {"assay": "qHTS for identification of novel therapeutic agents for treatment of microphthalmiaassociated transcription factor (MiT) renal cell carcinoma (RCC) (AID 1963991)", "details": "CellTiter-Glo, 48 h; for z-score: stronger effect = lower value", "summary_of_the_method": "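Three TFE3-fusion RCC lines (UOK109, UOK124, UOK145), 500 cells/well in complete medium, were treated with MIPE 4.0 compounds for 48 hours at 37 C. Viability was by CellTiter-Glo luminescence, normalized to DMSO (100%) and empty wells (0%); curves fitted over 11 concentrations.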"}, "[8]": {"assay": "qHTS assay for small molecule antagonists of peroxisome proliferator-activated receptor gamma signaling (AID 588537)", "details": "HEK293 PPARg-UAS-bla, beta-lactamase ratio, antagonist mode; measured here: W460 blue channel", "summary_of_the_method": "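Antagonist-mode β-lactamase reporter screen run as a titration series. HEK293 PPARγ-UAS-bla cells are stimulated with rosiglitazone (50 nM final) for 16 h, then CCF4 is read at 460/530 nm. Data are scaled between DMSO and rosiglitazone and fitted to the Hill equation.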"}, "[9]": {"assay": "qHTS assay for small molecule agonists of retinoid X receptor alpha signaling (AID 588544)", "details": "HEK293T RXRa-UAS-bla, beta-lactamase reporter, 18 h; 530 nm emission"}, "[10]": {"assay": "qHTS assay for small molecule antagonists of retinoid X receptor alpha signaling (AID 588546); note: % is set by controls: 0 for no effect and ±100 for the full control effect", "details": "HEK293T RXRa-UAS-bla, beta-lactamase ratio, antagonist mode; measured here: W530 green channel, cytotoxicity proxy", "summary_of_the_method": "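Beta-lactamase reporter inhibition, read as CCF4 fluorescence ratio (ex 405, em 460/530 nm) after 2 h at RT. HEK293T UAS-bla cells, 2500/well, were stimulated with 9-cis-RA at 500 or 100 nM final alongside test compound for 18 h at 37 C.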"}, "[11]": {"target": "Histamine N-methyltransferase (Homo sapiens) (UniProt P50135)", "sequence (P50135 whole entry, looked up)": "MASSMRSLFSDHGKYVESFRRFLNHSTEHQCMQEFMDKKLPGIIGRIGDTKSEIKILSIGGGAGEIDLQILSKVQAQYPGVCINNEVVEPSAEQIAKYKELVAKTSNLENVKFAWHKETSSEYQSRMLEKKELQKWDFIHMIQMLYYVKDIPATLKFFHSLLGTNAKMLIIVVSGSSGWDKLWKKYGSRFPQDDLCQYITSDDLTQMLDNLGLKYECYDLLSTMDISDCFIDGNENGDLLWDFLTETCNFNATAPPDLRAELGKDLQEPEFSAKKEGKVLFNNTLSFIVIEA", "assay": "Confirmatory Screen for Target Class Profiling of Small Molecule Inhibitors of Methyltransferases (AID 1745852);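 note: inhibitor potency for blocking SAH production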", "details": "MTase-Glo luminescence, SAH detection, recombinant enzyme; measured here: HNMT inhibition potency"}, "[12]": {"target": "Nicotinamide N-methyltransferase (Homo sapiens) (UniProt P40261)", "sequence (P40261 whole entry, looked up)": "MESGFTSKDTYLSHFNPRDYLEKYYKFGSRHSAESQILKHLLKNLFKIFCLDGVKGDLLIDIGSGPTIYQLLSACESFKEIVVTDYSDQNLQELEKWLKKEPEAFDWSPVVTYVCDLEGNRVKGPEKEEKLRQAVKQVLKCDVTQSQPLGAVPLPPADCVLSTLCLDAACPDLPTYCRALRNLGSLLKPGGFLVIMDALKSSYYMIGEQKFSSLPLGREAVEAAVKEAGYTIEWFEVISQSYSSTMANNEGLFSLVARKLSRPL", "assay": "Confirmatory Screen for Target Class Profiling of Small Molecule Inhibitors of Methyltransferases (AID 1745852)", "details": "MTase-Glo luminescence, SAH detection, recombinant enzyme; measured here: NNMT inhibition potency"}, "[13]": {"target": "Phenylethanolamine N-methyltransferase (Homo sapiens) (UniProt P11086)", "sequence (P11086 whole entry, looked up)": "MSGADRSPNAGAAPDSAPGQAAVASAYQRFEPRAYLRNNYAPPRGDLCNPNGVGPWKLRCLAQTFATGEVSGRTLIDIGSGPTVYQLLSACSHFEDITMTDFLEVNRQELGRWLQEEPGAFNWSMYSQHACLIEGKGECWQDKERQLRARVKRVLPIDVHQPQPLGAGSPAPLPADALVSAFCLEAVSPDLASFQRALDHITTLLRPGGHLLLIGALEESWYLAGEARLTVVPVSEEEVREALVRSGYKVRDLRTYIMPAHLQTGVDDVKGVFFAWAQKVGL", "assay": "Confirmatory Screen for Target Class Profiling of Small Molecule Inhibitors of Methyltransferases (AID 1745852)", "details": "MTase-Glo luminescence, SAH detection, recombinant enzyme; measured here: PNMT inhibition potency"}, "[14]": {"assay": "NCATS anti-infectives library activity on the primary C. elegans qHTS viability assay (AID 1745855)", "details": "C. elegans worm area imaging", "summary_of_the_method": "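GFP read-out by 488 nm laser cytometry at day 0, 3 and 7, gated on object perimeter, area and peak intensity, scored viability of PE254-GFP-FLuc worms exposed to compound in S medium with bacterial capsules at 21 °C.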"}, "[15]": {"details": "measured here: cell count channel max response"}, "[16]": {"details": "measured here: cell number channel AC50"}, "[17]": {"details": "measured here: lipid (BODIPY) channel AC50"}, "[18]": {"details": "measured here: lipid channel max response"}, "[19]": {"details": "measured here: 460 nm blue channel"}, "[20]": {"details": "measured here: 530 nm viability channel"}},
  "note": "“And” between values parts separate entries of the source, which are not always exact repeats. Identical values can stand only once. The list shows a part of the results. These are further read-outs of the screen, such as a control signal, another cell line or another target. No call is given for them. For some assays here: Most of these compounds were active or inconclusive in the main read-out, so they are no random draw. For some assays here: The note in brackets gives the kind of curve behind each potency; many fits are weak. Tags give direction and shape of the fitted curve.",
  "data": [
    {"molecule": "COc1cc(C(=O)OCCCN2CCCN(CCCOC(=O)c3cc(OC)c(OC)c(OC)c3)CC2)cc(OC)c1OC", "values": [
      {"measurement": "max response", "setting": "[1]; [15]", "result": "34.9% and 13.1%"},
      {"measurement": "AC50", "setting": "[1]; [16]", "result": "10 µM [rising, partial curve, poor fit] and 15.8 µM [falling, single point]"},
      {"measurement": "AC50", "setting": "[1]; [17]", "result": "15.8 µM [rising, partial curve, poor fit]"},
      {"measurement": "max response", "setting": "[1]; [18]", "result": "46.3% and 14.6%"},
      {"measurement": "AC50", "setting": "[2]; measured here: green reporter channel AC50, mouse Pmp22 promoter in mouse Schwann cells", "result": "67.5 µM [falling, partial curve]"},
      {"measurement": "AC50", "setting": "[2]; measured here: red reporter channel AC50, EF-alpha promoter control reporter in MSC80 mouse Schwann cells", "result": "84.9 µM [falling, single point]"},
      {"measurement": "AC50", "setting": "[3]; measured here: CBG/CBR ratio read-out", "result": "5.8 µM [falling, full curve]"},
      {"measurement": "AC50", "setting": "[3]; measured here: CBR control luciferase (viability counter)", "result": "0.0146 µM [rising, full curve]"},
      {"measurement": "AC50", "setting": "[4]; [19]", "result": "12.6 µM [falling, full curve]"},
      {"measurement": "AC50", "setting": "[5]", "result": "22.4 µM [falling, single point]"}
    ]},
    {"molecule": "O=C1C(=O)c2ccccc2C(O)=C1C1CCC(c2ccc(Cl)cc2)CC1", "note": "(stereo unspecified)", "values": [
      {"measurement": "max response", "setting": "[1]; [15]", "result": -36.2, "unit": "%"},
      {"measurement": "AC50", "setting": "[1]; [16]", "result": "6.31 µM [falling, full curve, poor fit]"},
      {"measurement": "AC50", "setting": "[1]; [17]", "result": "7.94 µM [falling, full curve]"},
      {"measurement": "max response", "setting": "[1]; [18]", "result": -107, "unit": "%"},
      {"measurement": "AC50", "setting": "[4]; [20]", "result": "6.31 µM [falling, partial curve]"},
      {"measurement": "AC50", "setting": "[5]", "result": "35.5 µM [rising, single point]"}
    ]},
    {"molecule": "Cc1cccc(N(C)C(=S)Oc2ccc3ccccc3c2)c1", "values": [
      {"measurement": "max response", "setting": "[1]; [15]", "result": 37.6, "unit": "%"},
      {"measurement": "AC50", "setting": "[1]; [16]", "result": "28.2 µM [rising, partial curve, poor fit]"},
      {"measurement": "AC50", "setting": "[1]; [17]", "result": "31.6 µM [rising, single point]"},
      {"measurement": "max response", "setting": "[1]; [18]", "result": 60.6, "unit": "%"},
      {"measurement": "AC50", "setting": "[4]; [19]", "result": "3.01 µM [falling, full curve, poor fit]"},
      {"measurement": "AC50", "setting": "[4]; [20]", "result": "4.47 µM [falling, full curve, poor fit]"},
      {"measurement": "AC50", "setting": "[5]", "result": "35.5 µM [rising, single point]"},
      {"measurement": "AC50", "setting": "[6]", "result": "21.9 µM [falling, single point]"},
      {"measurement": "z-score", "setting": "[7]; TFE3-RCC UOK109 viability, measured here: UOK109 Z-AUC", "result": 0.192},
      {"measurement": "z-score", "setting": "[7]; TFE3-RCC viability, measured here: UOK124 Z-AUC", "result": 0.64},
      {"measurement": "z-score", "setting": "[7]; TFE3-RCC viability, measured here: UOK145 Z-AUC", "result": 2.18},
      {"measurement": "AC50", "setting": "[7]; TFE3-RCC viability, measured here: UOK145 cell viability", "result": "37.2 µM [falling, partial curve, poor fit]"}
    ]},
    {"molecule": "NC(=NCCCCCCN=C(N)/N=C(\\N)Nc1ccc(Cl)cc1)/N=C(\\N)Nc1ccc(Cl)cc1", "values": [
      {"measurement": "max response", "setting": "[1]; [15]", "result": "-30% and -102%"},
      {"measurement": "AC50", "setting": "[1]; [16]", "result": "12.6 µM [falling, single point] and 17.8 µM [falling, partial curve]"},
      {"measurement": "AC50", "setting": "[1]; [17]", "result": "12.6 µM [falling, partial curve, poor fit] and 12.6 µM [falling, partial curve]"},
      {"measurement": "max response", "setting": "[1]; [18]", "result": "-48.8% and -109%"},
      {"measurement": "AC50", "setting": "[8]", "result": "39.8 µM [falling, partial curve, poor fit]"},
      {"measurement": "max response", "setting": "[9]", "result": "42.3% and 52.9% and -70.1%"},
      {"measurement": "max response", "setting": "[10]", "result": "42.9% and 8.06%"},
      {"measurement": "AC50", "setting": "[5]", "result": "10 µM [falling, partial curve, poor fit]"},
      {"measurement": "IC50", "setting": "[11]", "result": "3.04 µM [falling, full curve]"},
      {"measurement": "IC50", "setting": "[12]", "result": "21.5 µM [falling, partial curve]"},
      {"measurement": "IC50", "setting": "[13]", "result": "15.2 µM [falling, partial curve]"},
      {"measurement": "AC50", "setting": "[14]; day 7, measured here: worm number", "result": "1.83 µM [falling, partial curve, poor fit]"},
      {"measurement": "AC50", "setting": "[14]; day 7, measured here: worm area, day 3", "result": "16.3 µM [falling, partial curve, poor fit]"}
    ]}
  ]
}
